SMILES strings stand for the structures. About 200 (0.47%) of roughly 43,000 compounds were called active. Not shown: some 12% with an inconclusive outcome. Calls come from the whole dose curve; as a rule, active = well fitted cell-killing curve with a large enough effect; inconclusive = small, poorly fitted or top-dose-only effect, or effect the other way; inactive = flat fitted curve, though single readings scatter. The list shows a part of the results.
% is set by controls: 0 for no effect and ±100 for the full control effect.

The nature of the test: Cell viability qHTS assay in S16 Pmp22-F2sN cells. Note: nearly all actives have a fitted effect of over 65% in size. Conditions: S16 Pmp22-F2sN Schwann cells (luciferase reporters placed in the Pmp22 gene) viability, CellTiter-Glo, 24 h; series mostly up to 57.5 µM; activity change, negative = cytotoxicity: at the top concentration. In short, it runs like this: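 S16 Schwann cells carrying the Pmp22-F2sN reporter, seeded in 1536-well format, were exposed to library compounds for 24 h at 37C. Viability was read as CellTiter-Glo luminescence after 15 min at room temperature.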
In general terms: qHTS replaces the single test concentration by a dilution series.
Regarding `O=C(CSc1nc2ccsc2c(=O)n1Cc1ccccc1F)NCc1ccccc1`, the “activity change, negative = cytotoxicity” value is inactive: 13.4%.

With `CCc1ccc(NC(=O)N(Cc2ccc(C)cc2)Cc2cccn2-c2nnc(N3CCCC3=O)s2)cc1`, the “activity change, negative = cytotoxicity” value is inactive: -15.6%.

Regarding `O=C(Cc1csc2ccccc12)NCc1ccccc1F`, the “activity change, negative = cytotoxicity” value was inactive: 1.39%.

In the case of `CCOc1ccc(-c2nc(SCC(=O)Nc3ccc4c(c3)OCCO4)c(-c3ccc(F)cc3)[nH]2)cc1`, the “activity change, negative = cytotoxicity” value is inactive: -6.85%.

`CN1CCN(C(c2cccc(Br)c2)c2sc3nc(-c4ccco4)nn3c2O)CC1` (stereo unspecified): the “activity change, negative = cytotoxicity” value was inactive: -0.973%.

For the molecule `CCOc1ccc(-c2nonc2NC(=O)c2ccc(C)cc2)cc1OCC`, the “activity change, negative = cytotoxicity” value is inactive: 2.85%.

Turning to `CC(=O)N1CCCc2cc(S(=O)(=O)N3CCN(c4ccc(F)cc4)CC3)ccc21`, the “activity change, negative = cytotoxicity” value was inactive: -11.8%.

Take `CCc1cccc(-n2nnc(-c3nc(-c4cccs4)no3)c2N)c1`: the “activity change, negative = cytotoxicity” value was inactive: 5.85%.

With `Clc1ccc2nc(-c3ccc(Br)o3)c(Nc3ccc4c(c3)OCCO4)n2c1`, the “activity change, negative = cytotoxicity” value is inactive: 8.82%.

Consider `COc1cccc(OC)c1C(=O)Nc1cccc(-c2nc3cc(C)cc(C)c3o2)c1`, for which the “activity change, negative = cytotoxicity” value is inactive: 4.64%.

On to `COc1ccc(NC(=O)c2noc3c2CSc2ccccc2-3)cc1Cl`, for which the “activity change, negative = cytotoxicity” value is inactive: -19.7%.

For `Cc1ccc(NC(=O)Cn2c(C)cc(C)c(C#N)c2=O)cc1F`, the “activity change, negative = cytotoxicity” value was inactive: 16.6%.

For `Cc1cc(C)c(/C=C/c2onc(C)c2S(=O)(=O)N2CCC(C(=O)N3CCN(c4ccc(Cl)cc4)CC3)CC2)c(C)c1`, the “activity change, negative = cytotoxicity” value is inactive: 4.08%.

For `Cc1ccc(C(=O)Nc2nc3n(n2)C(c2ccccc2)C=C(c2ccccc2)N3)cc1` (stereo unspecified), the “activity change, negative = cytotoxicity” value is inactive: -7.23%.

Regarding `CC1CCc2onc(C(=O)N3CCN(c4cccc(C(F)(F)F)c4)CC3)c2C1` (stereo unspecified), the “activity change, negative = cytotoxicity” value was inactive: -23.7%.

Turning to `COc1ccc(-c2nc3ccccc3s2)cc1NC(=O)c1cc2ccccc2o1`, the “activity change, negative = cytotoxicity” value was inactive: -12.3%.

Take `Cc1ccc(NC(=O)CCNS(=O)(=O)c2cccc3nsnc23)cc1`: the “activity change, negative = cytotoxicity” value was inactive: 7.21%.

Turning to `Cc1ccc2nc(-c3ccc(C)c(NC(=O)CSc4ccc(Cl)cc4)c3)oc2c1`, the “activity change, negative = cytotoxicity” value is inactive: 7.91%.

`CCOc1ccc(N(C(=O)c2ccc(C)cc2)S(=O)(=O)c2ccc3c(c2)n(C)c(=O)n3C)cc1`: the “activity change, negative = cytotoxicity” value was inactive: -5.49%.

As for `CCn1cc(S(=O)(=O)c2cc(C)cc(C)c2)c(=O)c2cc(F)c(N3CCC(C)CC3)cc21`, the “activity change, negative = cytotoxicity” value is inactive: -29.7%.

In the case of `COc1ccc(OC)c(NC(=O)c2ccc3c(c2)c(C)c(C)n3Cc2ccc(F)cc2)c1`, the “activity change, negative = cytotoxicity” value is inactive: -12.5%.

With `CCN(CC)C(=O)Cn1c(=O)n(CCCCCC(=O)NCc2ccccc2Cl)c(=O)c2sccc21`, the “activity change, negative = cytotoxicity” value is inactive: 2.61%.

For the molecule `Cc1ccc2cccc(NC(=O)c3ccc(-c4cc(Cl)ccc4Cl)o3)c2n1`, the “activity change, negative = cytotoxicity” value was inactive: 10.2%.

As to `O=C(NCc1ccc(Cl)cc1)c1cc2ccccc2o1`, the “activity change, negative = cytotoxicity” value was inactive: 12.4%.

For the molecule `Cc1ccc(Cl)cc1N1CCN(C(=O)Cn2cnc3nc4c(cc3c2=O)CCCC4)CC1`, the “activity change, negative = cytotoxicity” value is inactive: -19.3%.

Regarding `Oc1ccc(Cl)cc1Nc1nc2ccccc2n2cnnc12`, the “activity change, negative = cytotoxicity” value is inactive: 8.93%.

On to `COc1ccc(CNC(=O)CCCc2cn(C)c3ccccc23)c(OC)c1`, for which the “activity change, negative = cytotoxicity” value is inactive: 4.77%.

In the case of `NC(=O)c1cc(S(=O)(=O)N2CCCCC2)cs1`, the “activity change, negative = cytotoxicity” value was inactive: -0.335%.

With `COc1ccc(CCn2c3c(c(=O)[nH]c2=O)C(NC(=O)c2ccccc2)(C(F)(F)F)C(=O)N3)cc1OC` (stereo unspecified), the “activity change, negative = cytotoxicity” value was inactive: 9.96%.

Consider `CCNC(=O)CC1C(=O)N(c2ccc(C)cc2)C(=O)N1Cc1ccc(C)cc1` (stereo unspecified), for which the “activity change, negative = cytotoxicity” value was inactive: 19.7%.

In the case of `O=C(CCS(=O)(=O)c1ccc2c(c1)NC(=O)CO2)Nc1cccc(C(F)(F)F)c1`, the “activity change, negative = cytotoxicity” value is inactive: 7.65%.

Consider `COc1ccc(NC(=O)Cn2nnc(C(=O)NCc3ccccc3Cl)c2N)cc1Cl`, for which the “activity change, negative = cytotoxicity” value was inactive: 4.47%.

`CCOC(=O)c1cc(-c2ccccc2)n(CCCC(=O)Nc2cccc(Cl)c2C)c1C`: the “activity change, negative = cytotoxicity” value was inactive: -15.8%.

On to `CSc1ccc(CCNC(=O)C(C)n2c(C)c3cnn(-c4ccccc4)c(=O)c3c2C)cc1` (stereo unspecified), for which the “activity change, negative = cytotoxicity” value is inactive: 18.3%.

On to `Cc1nc(-c2ccc(F)cc2)sc1CCNC(=O)c1ccco1`, for which the “activity change, negative = cytotoxicity” value is inactive: -25.1%.

In the case of `CCc1ccc(CNC(=O)CCN2C(=O)COc3ccccc32)cc1`, the “activity change, negative = cytotoxicity” value is inactive: 11.8%.

On to `Cc1cc(C)cc(NC(=O)Cn2nnc(C(=O)Nc3cc(C)cc(C)c3)c2N)c1`, for which the “activity change, negative = cytotoxicity” value is inactive: -5.75%.

Turning to `O=C(Cn1c(=O)n(Cc2ccccc2)c(=O)c2oc3ccccc3c21)Nc1ccc(Cl)cc1`, the “activity change, negative = cytotoxicity” value is inactive: -3.68%.

For `Cc1ccc(/C=C/c2onc(C)c2S(=O)(=O)N2CCC(C(=O)N3CCOc4ccccc43)CC2)cc1`, the “activity change, negative = cytotoxicity” value is inactive: 7.27%.

Turning to `CC(=O)Nc1cc(C(=O)NCc2ccc(F)cc2Cl)ccc1Sc1ccc(Cl)cc1`, the “activity change, negative = cytotoxicity” value is inactive: -22.7%.

As to `COC(=O)c1cc2oc(C)cc2n1CC(=O)Nc1ccc(C)cc1C`, the “activity change, negative = cytotoxicity” value was inactive: 4.14%.

With `Cc1ccc(-n2ncc3c(NCCCc4ccccc4)ncnc32)cc1C`, the “activity change, negative = cytotoxicity” value is inactive: -15.2%.

For `CC(C)c1ccc(NC(=O)c2ccc(NC(=O)CCS(=O)(=O)c3cccs3)cc2)cc1`, the “activity change, negative = cytotoxicity” value is inactive: 6.94%.

Take `Cc1ccc(CCNc2nc3c(S(=O)(=O)c4ccc(C)cc4)nnn3c3ccsc23)cc1`: the “activity change, negative = cytotoxicity” value is inactive: 1.15%.

Turning to `CCS(=O)(=O)N1CC(=O)N(c2cccc(C)c2C)C(C)(C(=O)NC2CCCCC2)C1` (stereo unspecified), the “activity change, negative = cytotoxicity” value was inactive: -9.22%.

Take `CCOC(=O)c1[nH]c(C)c(CCC(=O)Nc2ccc(N(CC)CC)cc2C)c1C`: the “activity change, negative = cytotoxicity” value is inactive: -24.1%.

Turning to `COc1cc(CNC(=O)c2cc3n(n2)CCCN(Cc2ccc(C)cc2)C3=O)cc(OC)c1OC`, the “activity change, negative = cytotoxicity” value was inactive: -8.42%.

Take `Cc1c(NC(=O)c2sc3c([N+](=O)[O-])cccc3c2Cl)cccc1-c1nc2ccccc2o1`: the “activity change, negative = cytotoxicity” value is inactive: 4.54%.

In the case of `Cc1ccc(-c2c3c(=O)n(C)c(=O)n(C)c3c3c(C(F)(F)F)nc4ccccc4n23)cc1`, the “activity change, negative = cytotoxicity” value is inactive: -0.94%.

Take `O=C1CC(c2ccc(Cl)cc2)Sc2nc(-c3ccc(F)cc3)nn21` (stereo unspecified): the “activity change, negative = cytotoxicity” value was inactive: 5.69%.

With `CCOc1ccc(CNS(=O)(=O)c2cc(-c3cc(C)no3)ccc2C)cc1OC`, the “activity change, negative = cytotoxicity” value was inactive: -0.491%.

In the case of `COc1ccc(-c2cnc(C)o2)cc1S(=O)(=O)Nc1ccc(C)c(N(C)C)c1`, the “activity change, negative = cytotoxicity” value was inactive: 6.85%.

For `Cc1ccc(NC(=O)CCC(=O)N2Cc3ccccc3Oc3ncccc32)cc1`, the “activity change, negative = cytotoxicity” value was inactive: -16.2%.

For the molecule `O=C(CCc1ccccc1)NC1CC(=O)N(c2ccccc2)C1` (stereo unspecified), the “activity change, negative = cytotoxicity” value is inactive: 8.56%.

Turning to `COc1cccc(OC)c1C(=O)Nc1ccc2c(c1)N(C(C)=O)CCC2`, the “activity change, negative = cytotoxicity” value is inactive: -0.796%.

On to `CCc1cnc2c(c1SCC(=O)Nc1ccc(C)cc1C)c(=O)n(C)c(=O)n2C`, for which the “activity change, negative = cytotoxicity” value is inactive: 8.55%.

Consider `CCCn1c(=O)c2sccc2n2c(CCCC(=O)Nc3cccc(CC)c3)nnc12`, for which the “activity change, negative = cytotoxicity” value was inactive: -9.64%.

For the molecule `CCn1c(=O)cc(SCC(=O)NCCc2ccc(OC)cc2OC)c2ccccc21`, the “activity change, negative = cytotoxicity” value was inactive: 4.9%.

For the molecule `Cn1c(=O)[nH]c2cc(-c3noc(-c4ccc(F)cc4)n3)ccc21`, the “activity change, negative = cytotoxicity” value was inactive: 0.601%.

As to `COCCCNC(=O)CSc1nc(-c2ccccc2)[nH]c1-c1ccc(C)cc1`, the “activity change, negative = cytotoxicity” value is inactive: -9.07%.

Regarding `CCc1ccc(-n2c(=O)c3c4c(sc3n(CC(=O)NC(C)CC)c2=O)CCCC4)cc1` (stereo unspecified), the “activity change, negative = cytotoxicity” value is inactive: 5.95%.

(Values after PubChem BioAssay AID1508642 (National Center for Advancing Translational Sciences (NCATS), 2021).)
